Experimental data: the supplement of paper PMC11876631
Positions count from the first letter of the chain named. Names and notes keep the numbering of the source. ± gives the standard deviation of the averaged measurements. Laboratory Escherichia coli strains with one amino-acid change in an essential protein, pooled on minimal glucose agar with carbenicillin or gentamicin at twice the control MIC (plus kanamycin and chloramphenicol for the plasmids), 48 h. Fold change of barcode share against drug-free plates; higher = less susceptible. Active = above 20 in both replicates (the paper's putatively resistant). '<' = one read or none on drug, '>' = one read or none on a drug-free plate. Shares are relative, so most strains fall below 1 when a few take over. Listed are strains with at least 15 reads on both drug-free plates, and hits; most hits rest on fewer reference reads. Replicate rank correlation about 0.5. Edits are read from barcodes.

B1: can M152A (protein)
chain: MKDIDTLISNNALWSKMLVEEDPGFFEKLAQAQKPRFLWIGCSDSRVPAERLTGLEPGELFVHRNVANLVIHTDLNCLSVVQYAVDVLEVEHIIICGHYGCGGVQAAVENPELGLINNWLLHIRDIWFKHSSLLGEMPQERRLDTLCELNVAEQVYNLGHSTIMQSAWKRGQKVTIHGWAYGIHDGLLRDLDVTATNRETLEQRYRHGISNLKLKHANHK
B2: can L69A (protein)
chain: B1 chain with L69A, A152M
B3: tsaD V131D (protein)
chain: MRVLGIETSCDETGIAIYDDEKGLLANQLYSQVKLHADYGGVVPELASRDHVRKTVPLIQAALKESGLTAKDIDAVAYTAGPGLVGALLVGATVGRSLAFAWDVPAIPVHHMEGHLLAPMLEDNPPEFPFDALLVSGGHTQLISVTGIGQYELLGESIDDAAGEAFDKTAKLLGLDYPGGPLLSKMAAQGTAGRFVFPRPMTDRPGLDFSFSGLKTFAANTIRDNGTDDQTRADIARAFEDAVVDTLMIKCKRALDQTGFKRLVMAGGVSANRTLRAKLAEMMKKRRGEVFYARPEFCTDNGAMIAYAGMVRFKAGATADLGVSVRPRWPLAELPAA
B4: tsaD L133Q (protein)
chain: B3 chain with D131V, L133Q
B5: tsaD L133A (protein)
chain: B3 chain with D131V, L133A
B6: tsaD L133D (protein)
chain: B3 chain with D131V, L133D
B7: trpC L235W (protein)
chain: MMQTVLAKIVADKAIWVEARKQQQPLASFQNEVQPSTRHFYDALQGARTAFILECKKASPSKGVIRDDFDPARIAAIYKHYASAISVLTDEKYFQGSFNFLPIVSQIAPQPILCKDFIIDPYQIYLARYYQADACLLMLSVLDDDQYRQLAAVAHSLEMGVLTEVSNEEEQERAIALGAKVVGINNRDLRDLSIDLNRTRELAPKLGHNVTVISESGINTYAQVRELSHFANGFWIGSALMAHDDLHAAVRRVLLGENKVCGLTRGQDAKAAYDAGAIYGGLIFVATSPRCVNVEQAQEVMAAAPLQYVGVFRNHDIADVVDKAKVLSLAAVQLHGNEEQLYIDTLREALPAHVAIWKALSVGETLPAREFQHVDKYVLDNGQGGSGQRFDWSLLNGQSLGNVLLAGGLGADNCVEAAQTGCAGLDFNSAVESQPGIKDARLLASVFQTLRAY
B8: carA I110A (protein)
chain: MIKSALLVLEDGTQFHGRAIGATGSAVGEVVFNTSMTGYQEILTDPSYSRQIVTLTYPHIGNVGTNDADEESSQVHAQGLVIRDLPLIASNFRNTEDLSSYLKRHNIVAAADIDTRKLTRLLREKGAQNGCIIAGDNPDAALALEKARAFPGLNGMDLAKEVTTAEAYSWTQGSWTLTGGLPEAKKEDELPFHVVAYDFGAKRNILRMLVDRGCRLTIVPAQTSAEDVLKMNPDGIFLSNGPGDPAPCDYAITAIQKFLETDIPVFGICLGHQLLALASGAKTVKMKFGHHGGNHPVKDVEKNVVMITAQNHGFAVDEATLPANLRVTHKSLFDGTLQGIHRTDKPAFSFQGHPEASPGPHDAAPLFDHFIELIEQYRKTAK
B9: carA L216Q (protein)
chain: B8 chain with A110I, L216Q
B10: carA L216D (protein)
chain: B8 chain with A110I, L216D
B11: carA L216P (protein)
chain: B8 chain with A110I, L216P
B12: carA L216W (protein)
chain: B8 chain with A110I, L216W
B13: carA L216A (protein)
chain: B8 chain with A110I, L216A

Target: Escherichia coli (laboratory strain)
Test: barcode share on antibiotic plates over drug-free plates; higher = less susceptible
Experimental: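 A pool of E. coli strains, each edited to carry one amino-acid change in an essential protein, was grown for 48 h on minimal glucose agar with or without antibiotic; strain barcodes were sequenced; mean of two replicates.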

[1] = antibiotic: carbenicillin, 2× MIC (3.1 µg/mL)
[2] = antibiotic: gentamicin, 2× MIC (MIC 0.45 µg/mL)

Protein | fold change of barcode share [1] | fold change of barcode share [2]
B1 | 0.333 ± 0.11 | 0.0113 ± 0.011
B2 | 0.78 ± 0.46 | < 0.00989
B3 | 0.267 ± 0.19 | < 0.0156
B4 | 0.217 ± 0.15 | < 0.0174
B5 | 0.192 ± 0.021 | < 0.0172
B6 | 0.295 ± 0.21 | < 0.0106
B7 | > 27.8 [active] | 
B8 | 0.115 ± 0.055 | 
B9 | 0.322 ± 0.026 | 0.00278 ± 0.001
B10 | 0.524 ± 0.38 | 0.036 ± 0.023
B11 | 0.408 ± 0.045 | 0.0095 ± 0.0018
B12 | 0.372 ± 0.2 | 0.0046 ± 0.00039
B13 | 0.3 ± 0.092 | 0.00457 ± 0.0028
